According to PMC4336329 (PLoS ONE, 2015):
Among all 310,000 compounds or so, about 14,000 (4.5%) showed an effect of 50% or more. Effects have a minus sign here. Some of the results follow.

These compounds were tested against human ether-à-go-go-related gene (hERG) potassium channel (human, UniProt Q12809) (assay: primary screen, population patch clamp on CHO cells stably expressing hERG).
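Note: peak tail current of the secondary pulse compared with the same well before compound.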

human ether-à-go-go-related gene (hERG) potassium channel, sequence (Q12809 whole entry, looked up): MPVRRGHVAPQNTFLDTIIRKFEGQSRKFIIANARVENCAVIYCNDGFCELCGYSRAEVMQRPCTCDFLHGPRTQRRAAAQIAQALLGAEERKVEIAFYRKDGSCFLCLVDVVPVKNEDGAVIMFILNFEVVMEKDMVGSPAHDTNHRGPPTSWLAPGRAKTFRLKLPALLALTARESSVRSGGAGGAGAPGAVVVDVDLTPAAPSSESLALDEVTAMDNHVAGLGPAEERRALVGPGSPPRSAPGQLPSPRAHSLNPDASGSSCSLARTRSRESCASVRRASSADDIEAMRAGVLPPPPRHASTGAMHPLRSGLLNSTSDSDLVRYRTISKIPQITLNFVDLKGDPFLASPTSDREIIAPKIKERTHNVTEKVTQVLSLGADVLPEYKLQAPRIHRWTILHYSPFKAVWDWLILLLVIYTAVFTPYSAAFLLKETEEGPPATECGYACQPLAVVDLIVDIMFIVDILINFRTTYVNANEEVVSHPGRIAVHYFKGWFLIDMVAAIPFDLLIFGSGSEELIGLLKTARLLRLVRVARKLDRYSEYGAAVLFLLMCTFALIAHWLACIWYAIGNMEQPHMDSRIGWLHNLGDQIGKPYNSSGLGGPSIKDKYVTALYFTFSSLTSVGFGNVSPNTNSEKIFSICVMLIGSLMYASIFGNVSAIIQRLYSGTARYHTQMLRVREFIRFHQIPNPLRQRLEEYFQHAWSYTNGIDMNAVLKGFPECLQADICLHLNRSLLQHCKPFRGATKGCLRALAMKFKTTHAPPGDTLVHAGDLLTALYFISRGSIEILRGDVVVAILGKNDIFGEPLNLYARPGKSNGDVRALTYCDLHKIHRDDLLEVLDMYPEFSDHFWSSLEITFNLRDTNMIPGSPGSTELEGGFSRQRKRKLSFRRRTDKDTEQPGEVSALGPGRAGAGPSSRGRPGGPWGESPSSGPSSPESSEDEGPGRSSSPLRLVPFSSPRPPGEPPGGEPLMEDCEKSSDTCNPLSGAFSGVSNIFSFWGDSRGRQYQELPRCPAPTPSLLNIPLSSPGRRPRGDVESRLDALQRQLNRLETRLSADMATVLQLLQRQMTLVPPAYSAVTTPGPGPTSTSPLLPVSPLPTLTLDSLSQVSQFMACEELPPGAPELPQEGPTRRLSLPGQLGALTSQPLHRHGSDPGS

Compound	hERG current change (%, negative = inhibition) at 10uM [%]
Cc1cnc(NC(=O)/C=C/c2ccc(Br)o2)s1	-5.35
COc1cc2c(cc1OC)C(C(=O)O)C(c1ccc(C)o1)N(C)C2=O (centres unmarked)	8.99
COC(=O)c1cccc(-n2c(C)cc(C=O)c2C)c1C	-1.4
Cc1ccccc1CC(=O)OCC(=O)Nc1ccc(C)c(S(=O)(=O)N2CCCCC2)c1	0.386
Cc1cccc(NC(=O)CNC(=O)CNC(=O)Cc2ccccc2)c1	-5.39
O=C(C1CCC1)N1CCc2cc(S(=O)(=O)Nc3ccc4c(c3)OCO4)ccc21	-1.44
O=S(=O)(NC1CCCCC1)c1ccc(Br)s1	-4.25
COc1ccc(NC(C)C(=O)Nc2cc(C(F)(F)F)ccc2N2CCOCC2)c(OC)c1 (centres unmarked)	-19.2
COc1ccc(-c2oc3ccc(N4CCOCC4)cc3c2C#CC2(O)CCCCC2)cc1	17.3
O=C(CCc1nnc(CCC2CCCCC2)o1)NCCc1cccnc1	-0.392
CCOC(=O)c1cnn(-c2nc(SC)nc3sc4c(c23)CCC4)c1N	-9.42
COc1ccc(OC)c(NS(=O)(=O)c2ccc(Cl)nc2)c1	22.2
Cc1ccc(/C(C#N)=C\c2cn(C)c3ccccc23)cc1	-7.63
COc1ccnc(Oc2ccc(F)cc2)c1C(=O)N/C=N/OCc1ccc(F)cc1Cl	9.87
O=[N+]([O-])c1ccc(N2CCN(C(=S)Nc3ccccc3)CC2)cc1	-4.16
CCCC(=O)Nc1nc2c(c(=O)[nH]1)CCCC2	10.2
Cc1ccccc1Cn1cc(NS(=O)(=O)c2cn(C)nc2C)cn1	6.08
COc1ccc(NS(=O)(=O)c2ccc(NC(=O)c3ccc(N(C)S(C)(=O)=O)cc3)cc2)c(OC)c1	19.6
CS(=O)(=O)N(CC(=O)NCCSCc1c(F)cccc1Cl)c1ccc2c(c1)OCO2	5.26
Cc1ccc(NC(=O)c2cc(=O)c3ccccc3o2)cc1S(=O)(=O)N1CCOCC1	0.642
O=C(OCC(=O)N1c2ccccc2Sc2ccccc21)c1ccc[n+]([O-])c1	-6.9
CCc1ccc(NC(=O)C(C)Nc2ccc(S(=O)(=O)NC(C)=O)cc2)cc1 (centres unmarked)	5.3
N#CC(C#N)=C(N)Nc1cccc(Cl)c1	6.5
N#C/C(=C(/O)CCl)c1nc2ccccc2[nH]1	1.37
O=[N+]([O-])c1ccc(N2CCN(c3ccccc3O)CC2)cc1	-0.173
O=C(CCCc1ccccc1)Nc1cccc([N+](=O)[O-])c1	3.15
Nc1nc(SCC(=O)NCC2CCCO2)[nH]c(=O)c1NC(=O)c1ccc(F)c(F)c1 (centres unmarked)	22.1

Compound	hERG current change (%, negative = inhibition) at 10uM [%]
Cn1ncc2c(Nc3cccc(Cl)c3)nc(Nc3cccc(Cl)c3)nc21	16.5
COc1ccc2cc3[n+](cc2c1OC)CCc1cc2c(cc1-3)OCO2.[Cl-]	-14.5
CC(C)Oc1ccc(S(=O)(=O)N2CCOCC2)cc1NC(=O)c1cc([N+](=O)[O-])ccc1N1CCOCC1	-45.7
CCOc1ccccc1NC(=O)COC(=O)CC(C)(C)CC1=NS(=O)(=O)c2ccccc2N1	-60.5
CCC(C(=O)N1CCN(C(=O)c2ccco2)CC1)c1ccccc1 (centres unmarked)	3.39
CCC1CCCCN1CCCNC(=O)CN1C(=O)COc2ccccc21 (centres unmarked)	8.04
Cc1ccc(NC(=O)COc2ncnc3c(Cl)cc(Cl)cc23)cc1[N+](=O)[O-]	-7.52
O=C(CN1C(=O)c2ccccc2S1(=O)=O)N1CCN(c2ccc(F)cc2)CC1	-7.37
COc1ccc(-n2c(SCC(=O)N3CCCCC3)nnc2-c2cccnc2)cc1	1.02
CCOC(=O)c1cnc2c(-c3cccc(Br)c3)cnn2c1C	-0.606
COc1ccc([C@H]2[C@H](C(=O)C(C)(C)C)N3N=Cc4ccccc4C3C23C(=O)OC(C)(C)OC3=O)cc1 (some centres unmarked)	1.29
CN1CCN(C(=O)C2=C[C@H](c3ccc(C(F)(F)F)cc3)C[C@H](OCc3ccc(CO)cc3)O2)CC1	-40.4
CC(=O)Nc1ccc(S(=O)(=O)Nc2cc([N+](=O)[O-])ccc2C)cc1	12.1
O=c1c(-c2ccccc2)coc2c(CN3CCCC3)c(O)ccc12	-7.29
Cc1ccc(C)c(CN2CCC(CNC(=O)Nc3ccc(C)c(F)c3)CC2)c1	-27.5
Cc1cc(=O)n2nc(N3CCCC3C(=O)Nc3cccc(Cl)c3C)sc2n1 (centres unmarked)	-6.56
COc1ccc(CCn2nnnc2C(C(C)C)N2CCC(C(N)=O)CC2)cc1OC (centres unmarked)	-3.69
CCC(=O)c1ccc(OCC(=O)OCC(=O)c2cc(C)n(C3CC3)c2C)cc1	3.73
O=C(NC1CCCCC1)C1COc2ccccc2O1 (centres unmarked)	-7.19
COCCCNC(=O)COC(=O)c1ccc(-c2nc3ccccc3s2)s1	-5.58
COc1ccccc1-n1cc(CN2CCN(CC=C(C)C)C(CCO)C2)cn1 (centres unmarked)	-13.7
COc1ccc(CC(=O)N/N=C(\C)CC(=O)Nc2ccc(N(C)C)cc2)cc1OC	21.9
COc1ccc2oc(C(=O)OCC(=O)N(CCC#N)c3ccccc3)c(C)c2c1	7.38
O=C(CCNS(=O)(=O)c1ccc(Br)cc1)NCCc1ccc(Cl)cc1	-4.6
O=C/C(=C\Nc1ccc(Br)cc1)c1nc2ccccc2o1	20.6
Cc1cccc(-n2c(O)c(/C=C3/C(c4ccccc4)=Nc4ccccc43)c(=O)[nH]c2=O)c1	1.39
